Among the data in publication PMC12466843 are binding values, retold here.

By UniProt entry, the sequences of proteins in these tests, tags left out.
UniProt Q96P20: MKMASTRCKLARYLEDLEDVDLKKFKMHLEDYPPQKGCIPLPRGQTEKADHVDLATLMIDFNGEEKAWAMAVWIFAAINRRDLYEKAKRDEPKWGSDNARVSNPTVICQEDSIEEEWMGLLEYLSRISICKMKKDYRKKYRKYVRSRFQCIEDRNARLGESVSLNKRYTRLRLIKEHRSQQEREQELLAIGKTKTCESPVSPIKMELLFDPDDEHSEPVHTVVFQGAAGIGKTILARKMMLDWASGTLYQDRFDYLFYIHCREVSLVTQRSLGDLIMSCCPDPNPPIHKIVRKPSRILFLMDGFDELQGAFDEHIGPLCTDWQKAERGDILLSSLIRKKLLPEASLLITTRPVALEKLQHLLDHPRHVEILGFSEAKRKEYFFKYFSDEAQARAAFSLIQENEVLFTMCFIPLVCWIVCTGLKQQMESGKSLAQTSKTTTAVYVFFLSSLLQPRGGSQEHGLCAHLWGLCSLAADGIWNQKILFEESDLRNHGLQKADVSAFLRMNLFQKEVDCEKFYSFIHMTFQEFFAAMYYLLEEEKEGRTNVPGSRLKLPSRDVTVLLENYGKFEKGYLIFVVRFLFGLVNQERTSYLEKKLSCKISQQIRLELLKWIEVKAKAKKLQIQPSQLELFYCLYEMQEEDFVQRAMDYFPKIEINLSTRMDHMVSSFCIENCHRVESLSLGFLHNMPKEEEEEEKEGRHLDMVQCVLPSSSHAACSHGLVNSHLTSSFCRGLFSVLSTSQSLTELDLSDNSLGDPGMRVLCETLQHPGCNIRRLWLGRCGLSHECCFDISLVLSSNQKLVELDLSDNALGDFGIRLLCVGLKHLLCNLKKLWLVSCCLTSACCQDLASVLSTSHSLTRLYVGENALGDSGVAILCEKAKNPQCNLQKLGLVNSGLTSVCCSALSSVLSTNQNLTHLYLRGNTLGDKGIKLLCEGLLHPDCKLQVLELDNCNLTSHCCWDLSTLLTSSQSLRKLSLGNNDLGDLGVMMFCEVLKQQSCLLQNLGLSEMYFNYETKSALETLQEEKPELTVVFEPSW

The target in assay [1] is T1, GFP-human FBXL2 (human) (UniProt Q9UKC9).
T1 sequence: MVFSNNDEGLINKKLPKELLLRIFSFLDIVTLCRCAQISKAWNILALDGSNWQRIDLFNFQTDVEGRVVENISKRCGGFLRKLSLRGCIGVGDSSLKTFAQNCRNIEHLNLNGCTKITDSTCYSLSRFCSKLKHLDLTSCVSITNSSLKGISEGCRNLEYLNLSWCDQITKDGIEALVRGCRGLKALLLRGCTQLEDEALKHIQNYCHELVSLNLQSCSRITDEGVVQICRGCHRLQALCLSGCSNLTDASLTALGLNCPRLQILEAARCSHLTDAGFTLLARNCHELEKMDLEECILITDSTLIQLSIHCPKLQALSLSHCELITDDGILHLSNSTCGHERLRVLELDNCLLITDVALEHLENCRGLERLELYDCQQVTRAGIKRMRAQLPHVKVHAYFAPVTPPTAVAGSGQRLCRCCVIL
The experiment in a line: co-IP; coimmunoprecipitation of NLRP3 and FBXL2 with or without USP13 overexpression (fig. S4A; legend not shown).

Assay [2] has as its target T2, HA-human TRIM31 (human) (UniProt Q9BZY9).
T2 sequence: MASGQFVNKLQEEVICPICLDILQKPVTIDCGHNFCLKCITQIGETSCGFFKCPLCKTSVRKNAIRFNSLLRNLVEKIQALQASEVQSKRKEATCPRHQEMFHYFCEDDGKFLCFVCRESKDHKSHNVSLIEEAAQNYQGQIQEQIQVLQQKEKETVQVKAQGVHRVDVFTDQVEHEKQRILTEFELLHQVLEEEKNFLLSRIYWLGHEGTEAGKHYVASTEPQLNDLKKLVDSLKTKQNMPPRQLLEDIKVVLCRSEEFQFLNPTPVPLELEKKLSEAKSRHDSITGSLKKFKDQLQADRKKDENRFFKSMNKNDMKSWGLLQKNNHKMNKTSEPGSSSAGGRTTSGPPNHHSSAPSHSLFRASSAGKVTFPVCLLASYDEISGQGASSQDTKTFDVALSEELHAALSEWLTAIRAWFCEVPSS
The experiment in a line: co-IP; HEK293T cells transfected with the indicated plasmid combinations, with or without USP13 overexpression; lysates immunoprecipitated with anti-HA beads; immunoblot of NLRP3 and TRIM31 (Fig. 4E). Background: In western blotting, separated proteins are transferred to a membrane and probed.

The target in assay [3] is T3, Flag-tagged human USP13 truncation mutant lacking the N-terminal region (amino acid residues 625 to 863) (human) (UniProt Q92995).
T3 sequence: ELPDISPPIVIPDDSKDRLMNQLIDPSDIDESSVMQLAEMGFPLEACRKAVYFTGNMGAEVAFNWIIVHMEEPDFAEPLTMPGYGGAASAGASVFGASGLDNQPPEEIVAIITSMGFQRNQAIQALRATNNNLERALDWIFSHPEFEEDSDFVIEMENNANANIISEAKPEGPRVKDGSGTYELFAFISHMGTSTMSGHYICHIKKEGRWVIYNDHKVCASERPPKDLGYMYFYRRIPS
The experiment in a line: co-IP; HEK293T cells transfected with Myc-tagged human NLRP3 and Flag-tagged human USP13 or its truncation mutants; lysates immunoprecipitated with anti-Flag M2 beads; immunoblot (Fig. 1L).

The target of assay [4] is NLRP3, endogenous in THP-1 cells (human (endogenous in THP-1)) (UniProt Q96P20). The experiment in a line: co-IP; endogenous proteins in THP-1 cells treated with LPS for indicated times; lysates immunoprecipitated with a control IgG or anti-NLRP3 antibody (Fig. 1F, G).
Assay [5] has as its target NLRP3, endogenous in murine macrophages (mouse (endogenous in BMDMs and PRMs)) (UniProt Q8R4B8). The assay can be described thus: co-IP; endogenous proteins in murine PRMs treated with LPS for indicated times; lysates immunoprecipitated with a control IgG or anti-NLRP3 antibody (Fig. 1F, G).
Assay [6] shares this target. The experiment in a line: co-IP; endogenous proteins in murine BMDMs, resting or treated with LPS (100 ng/ml) or Pam3CSK4 (200 ng/ml) for indicated times (Fig. 1D, E), or Usp13+/+ and Usp13-/- BMDMs treated with MG132 for 6 hours and then LPS (Fig. 4J); lysates immunoprecipitated with anti-NLRP3 antibody and protein A/G agarose; interaction weak in resting cells, increased by priming.

The target in assay [7] is T4, NLRP3, endogenous in murine macrophages (mouse (endogenous in BMDMs and PRMs)), Q8R4B8.
T4 chain: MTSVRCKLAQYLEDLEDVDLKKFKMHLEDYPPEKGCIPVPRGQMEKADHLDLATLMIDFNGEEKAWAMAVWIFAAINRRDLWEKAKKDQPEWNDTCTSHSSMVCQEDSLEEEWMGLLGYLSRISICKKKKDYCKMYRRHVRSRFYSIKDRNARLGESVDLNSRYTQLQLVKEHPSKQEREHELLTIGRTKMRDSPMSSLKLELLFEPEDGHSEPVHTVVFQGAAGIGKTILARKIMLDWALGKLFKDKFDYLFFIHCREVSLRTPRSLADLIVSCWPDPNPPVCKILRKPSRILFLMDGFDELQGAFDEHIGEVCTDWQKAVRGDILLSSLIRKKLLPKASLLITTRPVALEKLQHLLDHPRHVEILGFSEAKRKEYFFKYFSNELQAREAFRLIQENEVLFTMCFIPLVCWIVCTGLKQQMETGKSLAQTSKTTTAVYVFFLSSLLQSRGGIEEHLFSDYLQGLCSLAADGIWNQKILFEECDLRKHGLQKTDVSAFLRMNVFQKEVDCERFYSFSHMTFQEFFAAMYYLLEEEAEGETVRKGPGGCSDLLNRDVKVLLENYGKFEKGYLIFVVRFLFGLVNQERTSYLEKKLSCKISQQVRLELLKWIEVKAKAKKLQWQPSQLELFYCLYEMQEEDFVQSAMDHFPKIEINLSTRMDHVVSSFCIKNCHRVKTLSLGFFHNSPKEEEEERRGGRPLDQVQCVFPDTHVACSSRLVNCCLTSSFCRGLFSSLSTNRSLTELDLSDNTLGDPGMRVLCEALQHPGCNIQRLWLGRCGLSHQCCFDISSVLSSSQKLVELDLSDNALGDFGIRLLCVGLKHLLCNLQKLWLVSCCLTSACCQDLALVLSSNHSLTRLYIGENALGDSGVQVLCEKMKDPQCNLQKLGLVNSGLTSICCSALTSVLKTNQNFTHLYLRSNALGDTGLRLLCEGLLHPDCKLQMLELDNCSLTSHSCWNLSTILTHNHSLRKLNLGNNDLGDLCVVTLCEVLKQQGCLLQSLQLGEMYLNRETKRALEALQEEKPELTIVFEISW
The assay is described as above. The note with it: remark: other sources report otherwise.

No constants are given. Whether binding was seen depends on the method and setting. Binding seen in cells or lysates may run through a third protein. Some binding calls cover weakened binding; strength is not graded here. For some of these results: Where a sequence is shown, tags or fusion partners need not be part of it.

“Myc-tagged human NLRP3 (from UniProt Q96P20 1-1036)”: the binding result in assay [1] is “binds”; in assay [2], “binds”; in assay [3], “binds weakly”.

B1: USP13 (ubiquitin-specific protease 13), endogenous in THP-1 cells (enzyme, UniProt Q92995 1-863)
chain: MQRRGALFGMPGGSGGRKMAAGDIGELLVPHMPTIRVPRSGDRVYKNECAFSYDSPNSEGGLYVCMNTFLAFGREHVERHFRKTGQSVYMHLKRHVREKVRGASGGALPKRRNSKIFLDLDTDDDLNSDDYEYEDEAKLVIFPDHYEIALPNIEELPALVTIACDAVLSSKSPYRKQDPDTWENELPVSKYANNLTQLDNGVRIPPSGWKCARCDLRENLWLNLTDGSVLCGKWFFDSSGGNGHALEHYRDMGYPLAVKLGTITPDGADVYSFQEEEPVLDPHLAKHLAHFGIDMLHMHGTENGLQDNDIKLRVSEWEVIQESGTKLKPMYGPGYTGLKNLGNSCYLSSVMQAIFSIPEFQRAYVGNLPRIFDYSPLDPTQDFNTQMTKLGHGLLSGQYSKPPVKSELIEQVMKEEHKPQQNGISPRMFKAFVSKSHPEFSSNRQQDAQEFFLHLVNLVERNRIGSENPSDVFRFLVEERIQCCQTRKVRYTERVDYLMQLPVAMEAATNKDELIAYELTRREAEANRRPLPELVRAKIPFSACLQAFSEPENVDDFWSSALQAKSAGVKTSRFASFPEYLVVQIKKFTFGLDWVPKKFDVSIDMPDLLDINHLRARGLQPGEEELPDISPPIVIPDDSKDRLMNQLIDPSDIDESSVMQLAEMGFPLEACRKAVYFTGNMGAEVAFNWIIVHMEEPDFAEPLTMPGYGGAASAGASVFGASGLDNQPPEEIVAIITSMGFQRNQAIQALRATNNNLERALDWIFSHPEFEEDSDFVIEMENNANANIISEAKPEGPRVKDGSGTYELFAFISHMGTSTMSGHYICHIKKEGRWVIYNDHKVCASERPPKDLGYMYFYRRIPS
Regarding B1, the binding result in assay [4] is “binds”.

B2: USP13, endogenous in murine macrophages (enzyme, UniProt Q5BKP2 1-858)
chain: MQRRGALFSVPGGGGKMAAGDLGELLVPHMPTIRVPRSGDRVYKNECAFSYDSPNSEGGLYVCMNTFLAFGREHVERHFRKTGQSVYMHLKRHMREKVRGASGGALPKRRNSKIFLDLDMDDDLNSDDYEYEDEAKLVIFPDHYEIALPNIEELPALVTIACDAVLSSKSPYRKQDPDTWENEVPVSKYANNLVQLDNGVRIPPSGWKCARCDLRENLWLNLTDGSVLCGKWFFDSSGGNGHALEHYRDMGYPLAVKLGTITPDGADVYSFQEEGPVSDPHLAKHLAHFGIDMLHTQGTENGLRDNDIKPRVSEWEVIQESGTKLKPMYGPGYTGLKNLGNSCYLSSVMQAIFSIPEFQRAYVGNLPRIFDYSPLDPTQDFNTQMTKLGHGLLSGQYSKPPVKSELIEQVMKEEHKPQQNGISPRMFKAFVSKSHPEFSSNRQQDAQEFFLHLVNLVERNRIGSENPSDVFRFLVEERIQCCQTRKVRYTERVDYLMQLPVAMEAATNKDELITYELMRREAEANRRPLPELVRAKIPFSACLQAFAEPDNVDDFWSSALQAKSAGVKTSRFASFPEYLVVQIKKFTFGLDWVPRKFDVSIDMPDLLDISHLRARGLQPGEEELPDISPPIVIPDDSKDRLMNQLIDPSDIDESSVMQLAEMGFPLEACRKAVYFTGNTGAEVAFNWIIVHMEEPDFAEPLAIPGYGGAGASVFGATGLDNQPPEEIVAIITSMGFQRNQAVQALQATNHNLERALDWIFSHPEFEEDSDFVIEMENNANANIVSEAKPEGPRVKDGSGMYELFAFISHMGTSTMSGHYVCHIKKEGRWVIYNDHKVCASERPPKDLGYMYFYRRIPS
For B2, the binding result in assay [5] and in assay [6] was “binds” throughout.

B3: TRIM31, endogenous in murine BMDMs, Q8R0K2 1-507 (enzyme)
chain: MAGQPLACQLQEEVTCPICMEILQDPVTIDCGHNFCLQCISQVGKTSEKIQCPLCKLSVNKNTFRPNKLLASLAEKIQSMDPADIQAEKEDSRCQRHKEKLHYFCEQDGAFLCVVCRDSKDHKSHNVTLIDEAAQNYKVQIESQAQDLGQKDKKIIEEKKQGEGAIWAFRAQVDLEKLKIHEEFKLLRQRLDEEESFLLSRLDWLEQQGAKQLRQYVTVTEKQLNSLRKLTKSLKIRLQSSSMELLKDIKDALSRGKEFQFLNPNPVPEDLEKKCSEAKARHESIIKTLTELKDDMNAEGKRDKSAFMNSLNKEEKESWSLLQKNNSVLPTSVPVTLDKSSADPDLTFSQDLKKVTLYIVAGKASNRQAKPRPFYPFHCVRGSPGLSSGRQVWEAEIRGPSGGACIVGVVTELARGAQSQTVSAQSYIWALRISPSGCQPFTNCKAQEYLQVCLKKVGVYVNHDCGEVVFYDAITSKHIYTFQTSFDGKVFPLFGLQVACSHITLSP
On to B3, for which, in assay [7], the binding entry is “binds”.
